In the supplement of paper PMC10126150:
Values marked as one replicate rest on one cluster of the flow cell; about a third of the high ones do not repeat.

Tested on: ATP
Assay: switch fluorescence ratio, 500 uM ATP over buffer (Cy3 cluster intensity, sum of 5 cycles each) (fold (ratio)); higher = stronger signal-on switching upon ATP binding; sequences stand for … in TCGTCGGCAGCGTCAGATGTGTATAAGAGACAGTTTTTTTTTTTTTTTTTTTTTTTTT…TC
Settings: aptamer strand: ATP DNA aptamer (quencher-CACCTGGGGGAGTATTGCGGAGGAAGG + anchor), 100 nM annealed; ATP concentration: 500 uM; one replicate
In short: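 Switching-strand clusters labelled with Cy3 on a modified Illumina MiSeq flow-cell were annealed to 100 nM quencher-labelled ATP aptamer, imaged in selection buffer, and re-imaged after 15 min with 500 uM ATP at 22 °C. This was done over five cycles with NaOH stripping and re-annealing in between. The fluorescence ratio is summed target-cycle over summed buffer-cycle Cy3 intensity per cluster, averaged per switch-domain sequence, excluding clusters outside 100-1000 RFU.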
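Also: ATP exposure 15 min at 22 °C before imaging.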

For GACCTAGTAG, the switch fluorescence ratio was 0.961.

For TTGGAAATAT, the switch fluorescence ratio was 0.996.

For TGTTCAAGTG, the switch fluorescence ratio was 0.969.

In the case of AGCAGTGGTG, the switch fluorescence ratio is reported as 1.04.

CCGTGAATTT gave a switch fluorescence ratio of 1.15.

Sequence TTTGCATGC has a switch fluorescence ratio of 1.01.

TTGACCTAGT was tested, and the switch fluorescence ratio was 1.04.

Work on AATAGTAGTT yielded a switch fluorescence ratio of 1.03.

GGAAATGATT gave a switch fluorescence ratio of 1.01.

TCGTGTCCAT was tested, and the switch fluorescence ratio was 0.982.

ATCTTGCGAC was tested, and the switch fluorescence ratio was 1.16.

For ATAGGATACG, the switch fluorescence ratio was 1.11.

In the case of ACGAAGAAAT, the switch fluorescence ratio is reported as 1.43.

AAGAGAGCTT showed a switch fluorescence ratio of 1.

CAAGCATCTG was tested, and the switch fluorescence ratio was 1.06.

For TGAGAAAACG, the switch fluorescence ratio was 0.966.

Sequence CCCGGCGGCT has a switch fluorescence ratio of 1.07.

Work on TGAGTAGGCA yielded a switch fluorescence ratio of 0.961.

TTGGTTGGA gave a switch fluorescence ratio of 1.

CGTCATCATG was tested, and the switch fluorescence ratio was 0.982.

In the case of AACCGTCATT, the switch fluorescence ratio is reported as 1.07.

Work on ACATAGGGGA yielded a switch fluorescence ratio of 1.06.

AGCTGGGCCG showed a switch fluorescence ratio of 1.

CACAAGTCTG was tested, and the switch fluorescence ratio was 1.01.

With GCACCACGTT the switch fluorescence ratio was 1.04.

With GGAGCCTGT the switch fluorescence ratio was 1.02.

GAAGGAGAAA gave a switch fluorescence ratio of 1.

TGTGGTGTTG was tested, and the switch fluorescence ratio was 1.02.

In the case of CTAGGCGAGT, the switch fluorescence ratio is reported as 1.02.

With TCAGGCCGAC the switch fluorescence ratio was 1.

For ATAAGCCGCC, the switch fluorescence ratio was 1.1.

With GTTGATGGTC the switch fluorescence ratio was 0.924.

CGCCTGAATC was tested, and the switch fluorescence ratio was 1.05.

With CGCATATGCG the switch fluorescence ratio was 0.998.

Sequence GAACGCGGGA has a switch fluorescence ratio of 1.05.

For CACATCTGGT, the switch fluorescence ratio was 0.997.

TCGGCGGATG was tested, and the switch fluorescence ratio was 1.

Work on TAATGGCCGT yielded a switch fluorescence ratio of 1.06.

TTCCGGTATG was tested, and the switch fluorescence ratio was 1.03.

In the case of CGACCGGGGT, the switch fluorescence ratio is reported as 1.04.

Sequence TCAATTAAAG has a switch fluorescence ratio of 1.03.

Sequence TTGATTCCG has a switch fluorescence ratio of 1.17.

For GCAAGCGGTT, the switch fluorescence ratio was 1.01.

Work on TACGGGGGGA yielded a switch fluorescence ratio of 1.01.

GACCTTGCGA showed a switch fluorescence ratio of 1.54.

Work on ATTCAGTCGG yielded a switch fluorescence ratio of 0.981.

With AAACGATTCG the switch fluorescence ratio was 1.03.

AGGGGTCACA gave a switch fluorescence ratio of 0.954.

With CCGCGGGAAT the switch fluorescence ratio was 1.3.

With CACTGATTCA the switch fluorescence ratio was 1.01.

For ACCGTGAGAG, the switch fluorescence ratio was 1.05.

Sequence CTCTTCTTAA has a switch fluorescence ratio of 1.03.

TATCAGGGTT gave a switch fluorescence ratio of 0.985.

ATCATATTTT was tested, and the switch fluorescence ratio was 0.946.

With AATGTTGGCA the switch fluorescence ratio was 1.05.

In the case of TATGGGGCGT, the switch fluorescence ratio is reported as 1.01.

With CGAATCCAAT the switch fluorescence ratio was 1.04.

In the case of GCTCTGAAGG, the switch fluorescence ratio is reported as 1.04.

Work on GCACCAACGT yielded a switch fluorescence ratio of 1.41.

With TTGTCATACT the switch fluorescence ratio was 1.32.

TTTTCCATGC gave a switch fluorescence ratio of 1.05.

Work on AGGCATTGCT yielded a switch fluorescence ratio of 1.03.

TCTAGGATCG gave a switch fluorescence ratio of 1.03.

With TAGTGTTCCT the switch fluorescence ratio was 0.989.

TCGTCTTTGT showed a switch fluorescence ratio of 1.01.

Sequence TATAGGACTT has a switch fluorescence ratio of 1.06.

CGTTAGGTGG showed a switch fluorescence ratio of 0.967.

For GTGGGCTGGG, the switch fluorescence ratio was 1.02.

Sequence CCTGGCAGCT has a switch fluorescence ratio of 1.15.

Sequence TGTCTTTATG has a switch fluorescence ratio of 0.995.

Work on AACGCCTGGA yielded a switch fluorescence ratio of 0.987.

AGCTCACTGG showed a switch fluorescence ratio of 1.06.

AAACCTGCCG gave a switch fluorescence ratio of 1.23.

In the case of CCTCGGATGT, the switch fluorescence ratio is reported as 1.19.

For GCCTTTACAT, the switch fluorescence ratio was 0.98.

In the case of AATTTCTGCG, the switch fluorescence ratio is reported as 0.988.

Sequence CAATAATACT has a switch fluorescence ratio of 1.18.

For GAGGGCATGG, the switch fluorescence ratio was 1.03.

In the case of TTTATTTCAT, the switch fluorescence ratio is reported as 0.99.

For TCCTTGGGGC, the switch fluorescence ratio was 1.03.

Sequence AATCCTAGGC has a switch fluorescence ratio of 1.04.

Work on TTTCGTAAAG yielded a switch fluorescence ratio of 0.98.

TCGCTGCAGT gave a switch fluorescence ratio of 1.37.

Work on TCGGCGGGAT yielded a switch fluorescence ratio of 1.01.

Work on ACACATTCG yielded a switch fluorescence ratio of 1.

GCTGACCATT was tested, and the switch fluorescence ratio was 1.03.

GCGGTTCGCT showed a switch fluorescence ratio of 1.

With CGGTTGTGTC the switch fluorescence ratio was 0.943.

In the case of GATCGGTTGG, the switch fluorescence ratio is reported as 1.03.

CGCACGCCTC gave a switch fluorescence ratio of 1.68.

CTTTAGAACC gave a switch fluorescence ratio of 1.

In the case of CTTGTTCTCG, the switch fluorescence ratio is reported as 0.976.

Sequence AGAGTGCATC has a switch fluorescence ratio of 0.968.

TGAGGGCC gave a switch fluorescence ratio of 0.996.

CTCATATG gave a switch fluorescence ratio of 1.

With TGATCGTGTT the switch fluorescence ratio was 1.01.

GTTAATATAC gave a switch fluorescence ratio of 1.12.

TCAGACCGTC was tested, and the switch fluorescence ratio was 1.04.

Sequence TAGGGTTGAG has a switch fluorescence ratio of 1.01.

Work on GAGCACAACG yielded a switch fluorescence ratio of 0.982.

TAGCGTACAG showed a switch fluorescence ratio of 1.08.

In the case of TTACCGATGT, the switch fluorescence ratio is reported as 1.

Work on TCAGGGAATG yielded a switch fluorescence ratio of 0.997.

Sequence CGTTCTCAGA has a switch fluorescence ratio of 0.979.

ATTAGGGGTA gave a switch fluorescence ratio of 1.01.

CAACGTTGTG showed a switch fluorescence ratio of 1.03.

TTTAACCTAA was tested, and the switch fluorescence ratio was 0.985.

For TACCGAGGGG, the switch fluorescence ratio was 1.05.

CATTATCGAA was tested, and the switch fluorescence ratio was 1.01.

Work on GTCACGGGCA yielded a switch fluorescence ratio of 1.06.

With AGTGGTATCC the switch fluorescence ratio was 1.03.

In the case of TTAATTCTAG, the switch fluorescence ratio is reported as 0.972.

Work on ATCTTCTTAT yielded a switch fluorescence ratio of 1.04.

With GCGAGAACTT the switch fluorescence ratio was 0.982.

Work on TCGATGTATT yielded a switch fluorescence ratio of 0.972.

Sequence GTCCTCTGGC has a switch fluorescence ratio of 1.04.

CGGCCAGAAG showed a switch fluorescence ratio of 0.963.

With CGATATGTGT the switch fluorescence ratio was 0.983.

GGGCGTCTGG showed a switch fluorescence ratio of 1.03.

GGCACCTCAA showed a switch fluorescence ratio of 1.06.

With AGAACCCTGT the switch fluorescence ratio was 0.984.

GCCTTTCCCG showed a switch fluorescence ratio of 2.31.

In the case of AAGCTCAGTC, the switch fluorescence ratio is reported as 1.04.

TAATTGCGCT showed a switch fluorescence ratio of 1.02.

TTGCGCGTCC gave a switch fluorescence ratio of 1.02.

GGTTGCCAT showed a switch fluorescence ratio of 0.974.

GGATTTAGGA gave a switch fluorescence ratio of 0.956.

CCCAATCCCG showed a switch fluorescence ratio of 1.09.

For GCGATTCGGA, the switch fluorescence ratio was 0.985.

Sequence CGCTGTATGA has a switch fluorescence ratio of 0.988.

TTTGTGAGTG gave a switch fluorescence ratio of 0.97.

CTTCCTACAA showed a switch fluorescence ratio of 3.36.

CCAAATCGGG showed a switch fluorescence ratio of 1.01.

Sequence GTTCTTGCTT has a switch fluorescence ratio of 0.969.

Sequence ACAGATGTAT has a switch fluorescence ratio of 1.04.

With CGGCTGGCGT the switch fluorescence ratio was 1.02.

For CCTGGAGGTA, the switch fluorescence ratio was 0.96.

Work on TCATCGGGGG yielded a switch fluorescence ratio of 1.02.

GTCTGATGTT showed a switch fluorescence ratio of 1.01.

In the case of AGGTTGAA, the switch fluorescence ratio is reported as 1.05.

Work on TACCATAATA yielded a switch fluorescence ratio of 1.37.

With TACCCATATT the switch fluorescence ratio was 0.999.

ATTCAGGCGT showed a switch fluorescence ratio of 0.986.

For GGTAACACGA, the switch fluorescence ratio was 1.05.

ATGTGTGCAG showed a switch fluorescence ratio of 0.949.

In the case of TTTATCTCG, the switch fluorescence ratio is reported as 1.02.

CTTTTTAGGG showed a switch fluorescence ratio of 0.998.

Sequence AAACTTCCAA has a switch fluorescence ratio of 1.1.

Sequence AGGTTCGCCC has a switch fluorescence ratio of 0.995.

With AAATACAACA the switch fluorescence ratio was 1.06.

Work on CAAACATCT yielded a switch fluorescence ratio of 0.953.

In the case of AACGCTGGGA, the switch fluorescence ratio is reported as 0.991.

Sequence ATGACTGGCC has a switch fluorescence ratio of 1.01.

With GAATCATGTA the switch fluorescence ratio was 0.99.

In the case of ACGGTAATTG, the switch fluorescence ratio is reported as 1.13.

Work on ATAACGTTAC yielded a switch fluorescence ratio of 1.6.

ATTAGAGCTA was tested, and the switch fluorescence ratio was 1.03.
